Test results as given in patent US4866091A, “Alkanesulfonanilide derivatives, processes for preparation thereof and pharmaceutical composition comprising the same” (Fujisawa Pharmaceutical Co., Ltd., priority 1986, dated 1989).

System: adjuvant arthritis in rats
Type: in vivo, female Sprague-Dawley rats
Settings: Rattus norvegicus, po, 552 h, orally once a day for 23 days, read-out: Inhibition of Secondary Lesion (uninjected paw; %); for inhibition in vivo at 3.2 mg/kg: dose level 3.2 mg/kg; for inhibition in vivo at 10 mg/kg: dose level 10.0 mg/kg; for inhibition in vivo at 1 mg/kg: dose level 1.0 mg/kg

Compound: CON=C(C)c1ccc(NS(C)(=O)=O)c(Oc2ccc(F)cc2F)c1 [Example 16, 2'-(2,4-difluorophenoxy)-4'-[1-(methoxyimino)ethyl]methanesulfonanilide]
- inhibition in vivo at 3.2 mg/kg: 62.5%

Compound: CS(=O)(=O)Nc1ccc(C#N)cc1Oc1ccc(F)cc1F [Example 3, 4'-Cyano-2'-(2,4-difluorophenoxy)methanesulfonanilide]
- inhibition in vivo at 3.2 mg/kg: 66%

Compound: CC(=NNC(N)=O)c1ccc(NS(C)(=O)=O)c(Oc2ccc(F)cc2F)c1 [Example 40, 3'-(2,4-difluorophenoxy)-4'-methanesulfonamidoacetophenone semicarbazone]
- inhibition in vivo at 10 mg/kg: 70.4%

Compound: CC(O)c1ccc(NS(C)(=O)=O)c(Oc2ccc(F)cc2F)c1 (stereo not shown) [Example 32, 2'-(2,4-difluorophenoxy)-4'-(1-hydroxyethyl)methanesulfonanilide]
- inhibition in vivo at 10 mg/kg: 63.4%

Compound: CC(=O)c1ccc(NS(C)(=O)=O)c(Oc2ccc(Cl)cc2Cl)c1 [Example 14, 4'-Acetyl-2'-(2,4-dichlorophenoxy)methanesulfonanilide]
- inhibition in vivo at 3.2 mg/kg: 59.4%

Compound: CC(=O)c1ccc(NS(C)(=O)=O)c(Oc2ccc(F)cc2F)c1 [Example 1, 4'-acetyl-2'-(2,4-difluorophenoxy)methanesulfonanilide]
- inhibition in vivo at 1 mg/kg: 50%

Compound: Cc1cc(NS(C)(=O)=O)c(Oc2ccc(F)cc2F)cc1C#N [Example 20, 4'-Cyano-2'-(2,4-difluorophenoxy)-5'-methylmethanesulfonanilide]
- inhibition in vivo at 1 mg/kg: 49.3%

Compound: CC(C)Cc1ccc(C(C)C(=O)O)cc1 (stereo not shown) [Ibuprofen, reference compound]
- inhibition in vivo at 10 mg/kg: 24.7%
- inhibition in vivo at 100 mg/kg (dose level 100.0 mg/kg): 79.4%

Compound: CC(=O)c1ccc(NS(C)(=O)=O)c(Oc2ccc(F)cc2Cl)c1 [Example 25, 4'-Acetyl-2'-(2-chloro-4-fluorophenoxy)methanesulfonanilide]
- inhibition in vivo at 10 mg/kg: 81.6%
